Some of the results follow. Repeats are few or missing, and single values can be far off.
Assays:
Test in all cases: cell viability relative to vehicle (% of vehicle); basal-like triple-negative breast cancer lines; higher = less cytotoxic
Conditions in all cases: 10 µM; 72 h
HCC-1143 = test system: HCC-1143
HCC-1187 = test system: HCC-1187
MDA-468 = test system: MDA-468
SUM-149 = test system: SUM-149
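Note: stably firefly luciferase-GFP labeled cells in 96-well plates, viability read as luciferase photon flux after d-luciferin addition, treated wells normalized to vehicle wells, single-dose high-throughput screen.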

Question: What does the source list for `CC(=O)OC1CCC2(C)C(=CCC3C2CCC2(C)C(c4cccnc4)=CCC32)C1` (configuration not stated) [Abiraterone acetate]?
Answer: cell viability (HCC-1143): 79.7; cell viability (HCC-1187): 108; cell viability (MDA-468): 88.7; cell viability (SUM-149): 97.3

Question: For `CC1OC(OC2C(CO)OC(OC3C(CO)OC(O)C(O)C3O)C(O)C2O)C(O)C(O)C1NC1C=C(CO)C(O)C(O)C1O` (configuration not stated) [Acarbose], which cell viability (HCC-1143) is on record?
Answer: 89.1

Question: What about the cell viability (HCC-1187) of the same compound?
Answer: 118

Question: And the cell viability (MDA-468)?
Answer: 97.7

Question: And the cell viability (SUM-149)?
Answer: 103

Question: What does the source list for `CC(=O)NC(CS)C(=O)O` (configuration not stated) [Acetylcysteine]?
Answer: cell viability (HCC-1143): 77.3; cell viability (HCC-1187): 102; cell viability (MDA-468): 110; cell viability (SUM-149): 97

Question: For `COc1ccc2[nH]cc(CCNC(C)=O)c2c1` [Melatonin], which cell viability (HCC-1143) is on record?
Answer: 96.2

Question: What about the cell viability (HCC-1187) of the same compound?
Answer: 75.2

Question: And the cell viability (MDA-468)?
Answer: 92.3

Question: What about the cell viability (SUM-149) of the same compound?
Answer: 102

Question: How did the cell viability (HCC-1143) turn out when `C[N+](C)(C)CC(O)CC(=O)O.[Cl-]` (racemic) [DL-Carnitine HCl] was run?
Answer: 87.6

Question: What about the cell viability (HCC-1187) of the same compound?
Answer: 86.6

Question: And the cell viability (MDA-468)?
Answer: 106

Question: And the cell viability (SUM-149)?
Answer: 139

Question: How did the cell viability (HCC-1143) turn out when `CCOc1cc2ncc(C#N)c(Nc3ccc(F)c(Cl)c3)c2cc1NC(=O)C=CCN(C)C` [Pelitinib (EKB-569)] was run?
Answer: 101

Question: And the cell viability (HCC-1187)?
Answer: 69.1

Question: What about the cell viability (MDA-468) of the same compound?
Answer: 68.5

Question: What about the cell viability (SUM-149) of the same compound?
Answer: 57.5

Question: What does the source list for `CN(C)CCCN1c2ccccc2Sc2ccc(Cl)cc21.Cl` [Chlorpromazine HCl]?
Answer: cell viability (HCC-1143): 92.5; cell viability (HCC-1187): 119; cell viability (MDA-468): 111; cell viability (SUM-149): 88

Question: `CNS(=O)(=O)Cc1ccc2[nH]cc(CCN(C)C)c2c1` [Sumatriptan] was tested. Which cell viability (HCC-1143) did it give?
Answer: 68.3

Question: What about the cell viability (HCC-1187) of the same compound?
Answer: 87

Question: What about the cell viability (MDA-468) of the same compound?
Answer: 112

Question: What about the cell viability (SUM-149) of the same compound?
Answer: 109

Question: What does the source list for `CC(=O)Nc1cccc(-n2c(=O)n(C3CC3)c(=O)c3c(Nc4ccc(I)cc4F)n(C)c(=O)c(C)c32)c1`?
Answer: cell viability (HCC-1143): 131; cell viability (HCC-1187): 64.3; cell viability (MDA-468): 116; cell viability (SUM-149): 85.8

Question: How did the cell viability (HCC-1143) turn out when `CCc1ccc(CCOc2ccc(CC3SC(=O)NC3=O)cc2)nc1` (configuration not stated) [Pioglitazone] was run?
Answer: 85

Question: What about the cell viability (HCC-1187) of the same compound?
Answer: 101

Question: What about the cell viability (MDA-468) of the same compound?
Answer: 112

Question: What about the cell viability (SUM-149) of the same compound?
Answer: 136

Question: What does the source list for `CC[C@@]1(O)C(=O)OCc2c1cc1n(c2=O)Cc2cc3c(CN(C)C)c(O)ccc3nc2-1.Cl` [Topotecan HCl]?
Answer: cell viability (HCC-1143): 31.8; cell viability (HCC-1187): 34; cell viability (MDA-468): 31.7; cell viability (SUM-149): 36.5

Question: For `OCC1OC(Oc2cc(O)cc(C=Cc3ccc(O)cc3)c2)C(O)C(O)C1O` (configuration not stated) [Polydatin], which cell viability (HCC-1143) is on record?
Answer: 171

Question: And the cell viability (HCC-1187)?
Answer: 65.4

Question: What about the cell viability (MDA-468) of the same compound?
Answer: 156

Question: And the cell viability (SUM-149)?
Answer: 145

Question: Which results are given for `O=C(Nc1cccc2c(=O)cc(-c3nn[nH]n3)oc12)c1ccc(OCCCCc2ccccc2)cc1` [Pranlukast]?
Answer: cell viability (HCC-1143): 74.6; cell viability (HCC-1187): 88.4; cell viability (MDA-468): 99.6; cell viability (SUM-149): 99.7
